Test results taken from the antibiotic and cytotoxicity screens of Wong et al. (2023).
The list shows a part of the results.

Legend:
HSkMC = human skeletal muscle cells; assay: cytotoxicity call (relative viability < 0.9); details: 10 µM
HepG2 = assay: cytotoxicity call (relative viability < 0.9); details: 10 µM
S. aureus RN4220 = assay: growth inhibition call (relative growth <= 0.2); details: 50 µM

Cc1noc(C)c1S(=O)(=O)N(C)C[C@H]1Oc2ccc(NC(=O)Nc3ccc4c(c3)OCO4)cc2CC(=O)N([C@@H](C)CO)C[C@@H]1C
inactive: cytotoxicity call (HSkMC) | cytotoxicity call (HepG2) | growth inhibition call (S. aureus RN4220)

COc1ccc(CN(C)C[C@@H]2Oc3ccc(NS(C)(=O)=O)cc3CC(=O)N([C@H](C)CO)C[C@H]2C)cc1
inactive: cytotoxicity call (HSkMC) | cytotoxicity call (HepG2) | growth inhibition call (S. aureus RN4220)

CNC(=O)c1c(O)c2ccccc2[nH]c1=O
inactive: cytotoxicity call (HSkMC) | cytotoxicity call (HepG2) | growth inhibition call (S. aureus RN4220)

CC(C)NC(=O)Nc1ccc2c(c1)C(=O)N([C@@H](C)CO)C[C@@H](C)[C@@H](CN(C)Cc1ccc(C(=O)O)cc1)O2
inactive: cytotoxicity call (HSkMC) | cytotoxicity call (HepG2) | growth inhibition call (S. aureus RN4220)

COc1ccc2c3c(n(c2c1)C)[C@@H](CO)N(C[C@]13CN(C1)C(=O)c1ccncc1)C(=O)C1CCCCC1
inactive: cytotoxicity call (HSkMC) | cytotoxicity call (HepG2) | growth inhibition call (S. aureus RN4220)

CN(C)CCCn1ccnc1-c1cnc(N)nc1
inactive: cytotoxicity call (HSkMC) | cytotoxicity call (HepG2) | growth inhibition call (S. aureus RN4220)

OCC(O)C(O)CO (stereo unspecified)
inactive: cytotoxicity call (HSkMC) | cytotoxicity call (HepG2) | growth inhibition call (S. aureus RN4220)

CC1(C)CC2C1CCC1(C)OC1CCC2(C)O (stereo unspecified)
inactive: cytotoxicity call (HSkMC) | cytotoxicity call (HepG2) | growth inhibition call (S. aureus RN4220)

CC(C)(C)[S@@](=O)N1Cc2cc(C(=O)N3CCCCC3)nc(-c3cccc(-c4cccc(C#N)c4)c3)c2[C@H]1CCO
inactive: cytotoxicity call (HSkMC) | cytotoxicity call (HepG2) | growth inhibition call (S. aureus RN4220)

FC(F)(F)COCC(F)(F)F
inactive: cytotoxicity call (HSkMC) | cytotoxicity call (HepG2) | growth inhibition call (S. aureus RN4220)

Cc1cc(=O)n2c3ccccc3n(C[C@@H](O)CN3CCN(CCO)CC3)c2c1C#N
inactive: cytotoxicity call (HSkMC) | cytotoxicity call (HepG2) | growth inhibition call (S. aureus RN4220)

Cc1cccc(S(=O)(=O)N2C[C@@H](O)COC[C@@H]3O[C@H](CC(=O)N4CCN(C)CC4)CC[C@H]32)c1
inactive: cytotoxicity call (HSkMC) | cytotoxicity call (HepG2) | growth inhibition call (S. aureus RN4220)
